# Results from publication PMC4336329 (PLoS ONE, 2015).
# Among all 310,000 compounds or so, about 2,200 (0.71%) showed an effect of 50% or more. Effects have a minus sign here. This is one part of the list.
# Target: human ether-à-go-go-related gene (hERG) potassium channel (human, UniProt Q12809)
# Test: primary screen, population patch clamp on CHO cells stably expressing hERG
# Sequence of human ether-à-go-go-related gene (hERG) potassium channel (Q12809 whole entry, looked up): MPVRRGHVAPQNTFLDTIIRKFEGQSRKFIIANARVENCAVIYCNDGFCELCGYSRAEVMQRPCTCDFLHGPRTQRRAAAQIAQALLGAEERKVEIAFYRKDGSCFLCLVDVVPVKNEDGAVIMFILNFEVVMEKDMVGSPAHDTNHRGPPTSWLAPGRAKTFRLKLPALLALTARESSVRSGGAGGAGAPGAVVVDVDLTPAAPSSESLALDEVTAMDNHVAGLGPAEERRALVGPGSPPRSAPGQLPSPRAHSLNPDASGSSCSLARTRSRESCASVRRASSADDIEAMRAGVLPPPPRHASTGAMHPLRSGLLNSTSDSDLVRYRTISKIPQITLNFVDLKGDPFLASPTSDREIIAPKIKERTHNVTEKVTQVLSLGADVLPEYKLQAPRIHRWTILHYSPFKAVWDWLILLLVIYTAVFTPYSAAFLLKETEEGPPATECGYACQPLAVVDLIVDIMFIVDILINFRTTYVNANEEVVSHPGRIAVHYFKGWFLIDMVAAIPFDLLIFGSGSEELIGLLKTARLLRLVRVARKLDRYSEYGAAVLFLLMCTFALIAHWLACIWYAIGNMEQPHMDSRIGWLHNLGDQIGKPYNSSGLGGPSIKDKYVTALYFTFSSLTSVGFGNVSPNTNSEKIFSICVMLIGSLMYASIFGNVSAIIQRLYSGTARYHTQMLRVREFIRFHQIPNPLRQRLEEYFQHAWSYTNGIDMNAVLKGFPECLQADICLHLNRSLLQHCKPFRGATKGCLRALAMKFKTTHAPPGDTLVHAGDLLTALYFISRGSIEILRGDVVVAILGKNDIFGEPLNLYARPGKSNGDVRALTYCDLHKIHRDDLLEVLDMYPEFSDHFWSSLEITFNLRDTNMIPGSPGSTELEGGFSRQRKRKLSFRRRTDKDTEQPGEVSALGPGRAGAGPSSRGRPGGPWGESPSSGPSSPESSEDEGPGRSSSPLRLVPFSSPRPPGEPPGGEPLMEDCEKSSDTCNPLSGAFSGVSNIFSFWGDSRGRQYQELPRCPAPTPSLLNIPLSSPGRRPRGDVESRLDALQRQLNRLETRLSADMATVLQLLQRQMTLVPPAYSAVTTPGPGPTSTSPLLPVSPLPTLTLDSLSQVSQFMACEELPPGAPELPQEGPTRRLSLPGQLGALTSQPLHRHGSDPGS
row,SMILES,"hERG current change (%, negative = inhibition) at 1uM [%]"
1,COc1cc(C)c(CNc2cccc(C)c2)cc1C,7.65
2,CCN(CC)S(=O)(=O)c1ccc(Cl)c(C(=O)OC2CC(C)OC2=O)c1 (stereo not shown),13.8
3,CC1CCC(NC(=O)C2CCN(S(=O)(=O)c3cccc4nonc34)CC2)CC1 (stereo not shown),16
4,CCn1c(O)c(C=Nc2ccc(N3CCOCC3)c(Br)c2)c(=O)n(CC)c1=S,10.3
5,COC(=O)CC(=O)N1CCN(c2ccc(Cl)c(Cl)c2)CC1,3.4
6,C/C(=N\NC(=O)c1c(C)nc2ccccn12)c1ccccc1F,12.1
7,CNc1cc(CSC)nc(SCc2ccc(Cl)c(Cl)c2)n1,10.2
8,O=C(O)C(=O)O.O=[N+]([O-])c1ccc(S(=O)(=O)N(CCCN2CCOCC2)Cc2cccs2)cc1,-22.5
9,COc1cc(-c2nc(Cc3ccccc3Cl)no2)cc(OC)c1OC,-2.18
10,CCCOc1ccc(C2C(C(=O)OC)=C(C)N=C3SCCC(=O)N32)cc1OCC (stereo not shown),-0.267
11,Cc1cc(C)c(NC(=O)c2ccc(S(=O)(=O)N(C)C)cc2)c(C)n1,8.31
12,CC(=O)c1ccc(NC(=O)c2sc3nc(C)c(C)c(C)c3c2N)cc1,16.2
13,Cl.O=C(NCCN1CCN(c2ccccc2)CC1)c1ccccc1F,9.01
14,CCc1ccc2oc(=O)cc(CN(C)Cc3ccccc3)c2c1,6.82
15,Cc1ccc(N2C(=O)CC(=O)NC2=O)c(C)c1,14.9
16,Cn1c(SCc2ccccc2F)nc2ccccc2c1=O,-2.19
17,CCC(C)(C)n1nnnc1C(C(C)C)N(CCCO)Cc1cc2cc(C)ccc2[nH]c1=O (stereo not shown),3.96
18,Cc1cc(C)cc(C(=O)NCC(=O)N2CCC3(CC2)NCCc2[nH]cnc23)c1,16.6
19,CN(Cc1cccs1)C(=O)CNC(=O)c1ccco1,2.88
20,CNC(=O)c1ccccc1NC(=O)C1CC(=O)N(c2ccc(OC)cc2)C1 (stereo not shown),9.77
21,COC(=O)c1cccc(Nc2nc3ccccc3nc2C)c1,12.4
22,CN(C)c1ccc(/C=N/NC(=O)c2ccc3c(c2)OCCO3)cc1,6.47

row,SMILES,"hERG current change (%, negative = inhibition) at 1uM [%]"
1,COc1ccc(C(=O)Nc2cccc(S(C)(=O)=O)c2)cc1,-4.88
2,CSc1nc2ccc(Nc3nc(N4CCOCC4)nc(N4CCOCC4)n3)cc2s1,-7.88
3,CC(C)C[C@H](NC(=O)c1nc[nH]c1C(=O)N(C)Cc1ccccc1)C(=O)OC(C)(C)C,11.8
4,Cc1cc(OCC(=O)N2CCC(C(=O)O)CC2)c2c(C)cc(=O)oc2c1,1.81
5,COc1cc(/C=C(\C#N)c2ccccn2)ccc1OCc1ccccc1Cl,5.19
6,Cc1cccc2cc(CN(CC3CCCO3)C(=O)c3ccco3)c(=O)[nH]c12 (stereo not shown),3.08
7,O=C(Nc1ccccc1N1CCN(C(=O)c2ccccc2)CC1)c1cccc(Cl)c1,-12.6
8,NC1=NC(=O)C(Cc2ccc(OC(F)(F)F)cc2)S1 (stereo not shown),11.9
9,CC(NC(=O)CSc1ncccc1C(=O)O)C1CC2CCC1C2 (stereo not shown),7.06
10,Cc1ccccc1CC1(CO)CCCN(C(=O)c2cc(-c3ccccc3)no2)C1 (stereo not shown),8.98
11,Cn1c(SCC(=O)c2ccccc2)nnc1-c1ccco1,12.5
12,COc1ccc(-c2noc(CN(C)C(=O)c3ccc4c(c3)OCO4)n2)cc1OC,11
13,C[C@H](NC(=O)c1nc[nH]c1C(=O)NC(c1ccccc1)c1ccccc1)C(=O)OCc1ccccc1,14.8
14,COc1ccccc1NC(=O)NCC1CC1(Cl)Cl (stereo not shown),9.83
15,CC(NC(=O)COc1ccccc1)C(c1cccs1)N1CCCC1 (stereo not shown),9.93
16,Fc1ccccc1CNc1nc(-c2cccnc2)nc2ccccc12,19.7
17,CCOC(=O)C1=C(CC)Nc2ccccc2N/C1=N\S(=O)(=O)c1ccc(C(=O)OCC)cc1,9.45
18,COC(=O)CSc1c(-c2ccccc2)c2cc(Cl)ccc2[nH]c1=O,10.3
19,CCOC(=O)C(C(=O)OCC)C1CS(=O)(=O)CC1C(C(=O)OCC)C(=O)OCC (stereo not shown),14.8
20,CCCCc1nc(NCCNC(=O)c2ccccc2)c(C#N)c2c1CSC(C)(C)C2,11.8
21,CNc1nc(Oc2ccc(C(=O)OC)cc2)nc(SC)n1,10.4
22,Cn1c(SCc2cccc(C(F)(F)F)c2)nnc1-c1ccco1,1.63

row,SMILES,"hERG current change (%, negative = inhibition) at 1uM [%]"
1,CS(=O)(=O)c1nc(S(=O)(=O)c2ccc(Cl)cc2)c(N2CCCCC2)s1,13.9
2,CCOC(=O)c1ccc(NC(=S)N2CCN(CCN=CC3=C(O)CC(C)(C)CC3=O)CC2)cc1,-6.51
3,O=C(c1cccc(F)c1)N1CCN(c2ccc([N+](=O)[O-])c(N3CCCCC3)c2)CC1,2.24
4,COCCN1C(=O)c2cc(C(=O)Nc3ccc(OC)c(OC)c3)ccc2C1Nc1ccc(OC)c(OC)c1 (stereo not shown),7.78
5,CCOC(=O)c1c(NC(=O)CN2C(=O)NC3(CCCCC3)C2=O)sc(C)c1-c1ccc(C)cc1,8.67
6,O=c1[nH]cnc2c1c(-c1ccccc1)cn2-c1ccccc1,8.09
7,O=C(CN1CCCC1)Nc1nc(-c2ccc3c(c2)CCN3C(=O)c2ccccc2F)cs1,9.78
8,O=C(COC(=O)C1CC1)Nc1ncc(Cl)cc1Cl,13
9,C/C(O)=C(\N=Nc1cc(C)ccc1O)C(N)=O,6.16
10,N#C/C(=C\c1ccc[nH]1)C(=O)Nc1ccccc1F,10.2
11,CC(NC(=O)c1ccc(OC2CCN(C(=O)c3cccnc3)CC2)cc1)C1CC1 (stereo not shown),10.7
12,COC(=O)C1=C(c2ccc(S(C)(=O)=O)cc2)C[C@@H]2CC[C@H]1N2C(=O)NCCNC(C)=O,14.5
13,Cc1cc(C)n(-c2ccc(Cl)c(C(=O)O)n2)n1,-0.602
14,CC(=O)Nc1ccc(NC(=O)C(C)OC(=O)/C=C/c2ccc3c(c2)OCO3)cc1 (stereo not shown),-5.72
15,COCC1CCCN(C(=O)c2cc(COc3ccc(C(C)=O)cc3)on2)C1 (stereo not shown),18.2
16,Cc1ccc(-n2c(SCC(=O)NCCN3C(=O)CSC3=O)nnc2-c2ccccc2)cc1C,-1.61
17,COc1ccc(-c2nnnn2CCc2ccccc2)cc1,9.62
18,CC1CCN(c2nc(-c3ccccc3)c(C#N)c(=O)[nH]2)CC1,17
19,Cc1ccc(-n2ncc(C(=O)Nc3ccc(Cl)cc3)c2C2CCNCC2)cc1C.Cl,-43
20,Cc1ccc(C)c(S(=O)(=O)N2CCN(C(=O)c3sccc3C)CC2)c1,-9.96
21,COCCn1nnnc1CN1CCC(NC(=O)c2ccc(Br)cc2)CC1,-9.13
22,O=c1c(C=NCCCn2ccnc2)c(-c2ccccc2)[nH]n1-c1nc2ccccc2s1,-26.9

row,SMILES,"hERG current change (%, negative = inhibition) at 1uM [%]"
1,CC(=O)c1ccc(NC(=O)CSCCO)cc1,17.7
2,Cc1cc(=O)[nH]c(N/N=C/c2cccc([N+](=O)[O-])c2)n1,9.49
3,O=C1CNC(=O)/C1=C/c1ccccc1,14.9
4,O=C(CSc1nncc2ccccc12)N1CCOCC1,7.48
5,Cc1cccc(C)c1NC(=O)CN(C)C(=O)CN1C(=O)NC2(CCCC2)C1=O,-0.608
6,CCN1C(=O)[C@H]2[C@@H](c3ccc(-c4cccc(Cl)c4)c(OC)c3)N[C@@](Cc3ccccc3)(C(=O)OC)[C@H]2C1=O.O=C(O)C(F)(F)F,15
7,COc1ccc(CNc2ncnc3sccc23)cc1,9.36
8,Cc1cc(C(=O)COC(=O)C(C)NC(N)=O)c(C)n1Cc1ccco1 (stereo not shown),11.2
9,CCOC(=O)CSc1n[nH]c(NC(=O)CC)n1,9.05
10,COc1ccc(OC)c(-c2csc(N(CC3CCCO3)C(=O)C3CCCCC3)n2)c1 (stereo not shown),9.03
11,CC(C)n1nnc2c(=O)oc3ccccc3c21,7.15
12,CCN1C(=O)N(C(C)=O)C2C1N(C(C)=O)C(=O)N2C(C)=O (stereo not shown),14
13,N#CC1=C(N)Oc2c(sc3ccccc23)C1c1ccco1 (stereo not shown),4.37
14,COc1ccc(C(CNC(=O)C(CCSC)NC(=O)c2ccccc2Cl)N2CCCCC2)cc1 (stereo not shown),-8.45
15,Cc1nonc1OCCn1c([N+](=O)[O-])cnc1C,11.6
16,CN1CCN(c2oc(-c3ccc([N+](=O)[O-])cc3)nc2C#N)CC1,-26.2
17,Cc1ccccc1NC(=O)CSc1nc2ncc(Cl)cc2[nH]1,10.3
18,Cc1ccc(S(=O)(=O)N2CCN(Cc3cccnc3)CC2)cc1,3.83
19,C/C(=N/NC(=O)c1ccccn1)c1c[nH]c2ccccc12,11.4
20,COc1ccc(NS(=O)(=O)c2ccc(S(=O)(=O)N(C)C)cc2)cc1S(N)(=O)=O,16.4
21,Cc1cc(NC(=O)CSc2nnc(C3COc4ccccc4O3)o2)no1 (stereo not shown),3.22
22,CCCn1c2ccccc2c2nnc(SCC(=O)OC)nc21,9.41
